Read-outs that look alike come from different tables or passages of the source. Each block holds one molecule with its values, some of them ahead of it.
Assays:
[1] = system: U937-C5aR1 cells; assay: Binding to U937-C5aR1 cells; conditions: two antibody preparations
[2] = system: human neutrophils; assay: Binding to human neutrophils; conditions: two antibody preparations, read-out: EC50 of human neutrophil binding
[3] = system: CD11b; assay: Inhibition of CD11b expression in neutrophils; format: cell-based, human; conditions: 100 nM C5a
Excerpt: CD11b, an integrin receptor, is mobilized to the surface of neutrophils in response to C5a activation and mediates intravascular crawling prior to neutrophil transmigration. CD11 is involved in numerous adhesion-related associations between cells such as monocytes, macrophages, natural killer (NK) cells, and granulocytes.
The experimental details of this determining CD11 expression are described in Example 5.

[4] = system: neutrophils; assay: ROS production by neutrophils (Cellular ROS Detection Assay Kit); format: cell-based; conditions: ANCA− and ANCA+ groups
Description: ROS production by neutrophils was detected with a Cellular ROS Detection Assay Kit (Abcam) following manufacturer's manual. The RBC-lysed WB cells were diluted to the concentration of 3×10^5 cells in 100 mL buffer. Pre-treatment with ROS inhibitor (N-acetyl-L-cysteine) was carried out for the negative control group at 37° C., 5% CO2 for 30 minutes. ROS detection antibody then added into the antibody cocktail for flow cytometry-based detection of neutrophil ROS production. ROS inducer (pyocyanin) was added to all groups and incubated for 30 minutes prior to acquisition on the cytometer.
The experimental details of this determining ROS production are described in Example 7.

[5] = system: hC5aR1 mice; assay: C5a-induced neutropenia in transgenic human C5aR1 mice; format: in vivo, mouse
Description: Briefly, five groups of hC5aR1 mice were evaluated for inhibition of neutropenia. In the first group, 5 hC5aR1 mice were injected with PBS (vehicle), intravenously. […] In the fourth group, 5 hC5aR1 mice were injected with non-C5aR1 antibody (Motavizumab) intravenously at a dose of 20 mg/kg. In the fifth group, 5 hC5aR1 mice were injected with avacopan at a dose of 30 mg/kg, intravenously. One hour after injection of the PBS, exemplary antibodies, motavizumab or avacopan, 0.1 mg/kg of human C5a was injected into the hC5aR1 mice. The blood was collected after 1 min, 5 min and 2 hr after injection of human C5a. The percent chance in neutrophils and average change in neutrophils were calculated in all three groups and are shown in FIG. 15B-15C. Neutrophil cell counts were assessed by gating CD45+/CD11b+/Ly6G+ cells.
The experimental details of this mouse in vivo assay are described in Example 11.
Table 19 summarizes the dosage regimen of the antibodies being tested, and the bleed times to determine neutropenia.

[6] = Pharmacokinetics in human C5aR1 knock-in mice; conditions: mouse, in vivo
Description: 5 mg/kg of exemplary monospecific and biparatopic antibodies were injected intravenously into Tg32 mice. The amount of the antibody in the serum was evaluated over a period of 500 hours. […] FIG. 16B-16D show the stability of the anti-C5aR1 antibodies in the serum of 5 different mice for 500 hours. […] The tetravalent antibodies have slightly lower persistence in serum as compared to the monospecific antibody. Motavizumab was used as a control.
Target-Mediated Drug Disposition (TMDD) is evident for both exemplary C5aR1 antibodies with modified Fc domains. TMDD is the phenomenon in which a drug binds with high affinity to its pharmacological target site (such as a receptor) to such an extent that this affects its pharmacokinetic (PK) characteristics. The target binding and subsequent elimination of the drug-target complexes could affect both drug distribution and elimination, and result in nonlinearity of PK in a dose-dependent manner.
The target binding and subsequent elimination of the drug-target complexes could affect both drug distribution and elimination, and result in nonlinearity of PK in a dose-dependent manner. FIG. 30A-30F show antibody persistence was dose-dependent. […] FIG. 30F is in silico graphical representation of isotype control antibody over a period of 500 hours at a concentration of 20 mg/Kg. […]

[7] = Stability at 4° C., RT, 37° C. and freeze/thaw (HMW aggregates vs intact antibody); format: physicochemical
Description: Both monospecific and biparatopic antibodies were incubated at 4° C. for up to 14 days. After one thaw cycle at 37° C., the amount of intact antibodies were evaluated by gel filtration, native PAGE and dynamic light scattering (DLS).

[8] = system: U937-C5aR1; assay: Kinetic binding assay on U937-C5aR1 cells
Excerpt: (§1) Exemplary kinetic assays for binding to C5aR1 expressing cells are shown in (FIG. 17B). Kinetic measures were fitted after a 2-3 dose association phase followed by dissociation.

[9] = system: neutrophils; assay: Kinetic binding assay on neutrophils
Excerpt: as §1

[10] = target: Macrophages; assay: Kinetic binding assay on macrophages
Excerpt: as §1

[11] = target: T1, C5aR2 (Homo sapiens, UniProt Q9P296); assay: ELISA binding specificity on immobilized C5aR2 VLP
T1 sequence (Q9P296 1-337): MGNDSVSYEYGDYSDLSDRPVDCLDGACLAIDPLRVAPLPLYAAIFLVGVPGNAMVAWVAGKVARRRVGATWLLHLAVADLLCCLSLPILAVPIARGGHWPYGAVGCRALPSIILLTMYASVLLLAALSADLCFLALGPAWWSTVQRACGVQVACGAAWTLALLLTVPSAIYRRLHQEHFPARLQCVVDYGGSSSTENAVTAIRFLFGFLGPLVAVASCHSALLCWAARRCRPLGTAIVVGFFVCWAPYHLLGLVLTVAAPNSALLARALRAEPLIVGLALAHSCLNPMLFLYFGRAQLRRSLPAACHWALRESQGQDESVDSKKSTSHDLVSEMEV
Description: The specificity of the C5aR1 antagonistic antibodies was determined by measuring the affinity of anti-C5aR1 antibodies to C5aR2. C5aR2 VLP were immobilized to a MaxiSorp ELISA plate at a concentration of 30 μg/mL and incubated overnight at 4° C. The following morning, plates were washed 3 times with 1× PBS and plates were blocked for 30 minutes with 100 μL of PBSA (1× PBS with 3% BSA). A serial titration of anti-C5aR antibody was performed in the presence of PBSA and incubated for 1 hour at room temperature. Plates were washed 6 times with PBSA. Anti-human-HRP was diluted in PBSA, added to all wells, and incubated for 45 minutes at room temperature. Plates were washed 6 times with PBS. TMB substrate was added to all wells and incubated for 10 minutes before the addition of stop solution (0.1 M sulfuric acid). Absorbance at 450 nm was measured on a standard plate reader. A four-parameter curve fit was used to generate the EC50 value of the antibody titration in nM.
The specificity of the Fc-modified C5aR1 antagonistic antibodies was determined by measuring the affinity of anti-C5aR1 antibodies to C5aR2. This was determined as described in Example 1.

[12] = system: C5aR1-U937 stable cells; assay: Chemotaxis of C5aR1-U937 stable cells (Boyden chamber); format: cell-based; conditions: 1 nM, 3.16 nM and 10 nM antagonist, increasing C5a
Description: First, C5aR1-U937 stable cells were seeded into the top chamber of a 96 Transwell plate in the presence of no antibody (antagonist), or of 1, 10, or 100 nM each antibody (antagonist). The bottom chamber contained a half-log titration of C5a (chemoattractant) ranging from 10^−6 to 10^−9.5 M. The top and the bottom chambers were separated by a membrane. C5a is expected to induce migration of U937 cells. However, use of a C5aR1 antagonist is expected to inhibit this migration. Increasing concentration of the exemplary antibodies were used to determine a dose-dependent inhibition of chemotaxis. Further, increasing concentration of the chemoattractant (C5a) was used to determine if the inhibition of chemotaxis was surmountable by using high concentration of C5a. In a parallel setting, a known C5aR1 inhibitor, Avacopan was also used to evaluate the inhibition of chemotaxis of neutrophils and surmountability of the chemotaxis in the presence of excess C5a.
The experimental details of this determining neutrophil chemotaxis are described in Example 4.

EC50 ([1]; listed as c2137-e1711 Prep 1): 2.47 nM | EC50 ([1]; listed as c2137-e1711 Prep 2): 2.25 nM | EC50 ([2]; listed as c2137-e1711 Prep 1): 1.07 nM | EC50 ([2]; listed as c2137-e1711 Prep 2): 1.05 nM | IC50 [3]: 1.47 nM | EC50 ([8]; U937-C5aR1 cells): ~1 nM | EC50 [9]: ~1 nM | EC50 [10]: ~0.5 nM | Kd [10]: ~0.6 nM
B1: c2137-e1711: tetravalent biparatopic anti-C5aR1 antibody, Fab-Fc-linker-scFv; heavy chain SEQ ID NO: 12, light chain SEQ ID NO: 13 (antibody)
heavy: QVQLVQSGAEVKKPGASVKVSCKASGYTFTNYWMHWVRQAPGQGLEWMGYLNPSSGYTKYAQKFQGRVTMTRDTSTSTVYMELSSLRSEDTAVYYCTRSGGDNYGNPYYFDRWGQGTTVTVSSASTKGPSVFPLAPCSRSTSESTAALGCLVKDYFPEPVTVSWNSGALTSGVHTFPAVLQSSGLYSLSSVVTVPSSSLGTKTYTCNVDHKPSNTKVDKRV[human IgG4 Fc with S228P (EU numbers) omitted here]GGGGSEIVLTQSPATLSLSPGERATLSCRSSQSLVHSNGNTYLNWYQQKPGQAPRLLIYKVSNRLSGIPARFSGSGSGTDFTLTISSLEPEDFAVYYCSQSTHVPYTFGCGTKLEIKGGGGSGGGGSGGGGSGGGGSEVQLVESGGGLIQPGGSLRLSCAASGFTFNAYAMSWVRQAPGKCLEWVSSISTGGNTYYADSVKGRFTISRDNSKNTLYLQMNSLRAEDTAVYYCTRGYQRFSGFAYWGQGTLVTVSS
light: DVQMTQSPSSLSASVGDRVTITCRASQSIVHSNGNTYLHWYQQKPGKAPKFLIYKVSNRFSGVPSRFSGSGSGTDFTLTISSLQPEDFATYYCAQSTLVPLTFGQGTKLEIKRTVAAPSVFIFPPSDEQLKSGTASVVCLLNNFYPREAKVQWKVDNALQSGNSQESVTEQDSKDSTYSLSSTLTLSKADYEKHKVYACEVTHQGLSSPVTKSFNRGEC
inhibition of ANCA induced ROS production [4]: inhibited ANCA induced ROS production | inhibition of neutropenia ([5]; hC5aR1 mice, 20 mg/kg IV): Complete inhibition | Target-Mediated Drug Disposition (TMDD) [6]: TMDD observed | % HMW ([7]; 37 c. T1 day): 8.1% | % Main ([7]; 37 c. T1 day): 91.9% | % HMW ([7]; F/T 1 cycle): 8.1% | % Main ([7]; F/T 1 cycle): 91.9% | % HMW ([7]; T = 0 week, 2-8 C.): 8.5% | % Main ([7]; T = 0 week, 2-8 C.): 91.5% | % HMW ([7]; T = 1 week, 2-8 C.): 8.4% | % Main ([7]; T = 1 week, 2-8 C.): 91.6% | % HMW ([7]; T = 1 week, RT): 8.4% | % Main ([7]; T = 1 week, RT): 91.6% | % HMW ([7]; T = 2 week, 2-8 C.): 8.3% | % Main ([7]; T = 2 week, 2-8 C.): 91.7% | % HMW ([7]; T = 2 week, RT): 8.3% | % Main ([7]; T = 2 week, RT): 91.7% | Kd ([8]; U937-C5aR1): ~1 nM | Kd [9]: ~2 nM

binding to C5aR2 [11]: did not display affinity for C5aR2
B2: c2137-e1711-Fcmod: biparatopic antibody with modified IgG4 Fc (F234V, L235E, D265G, S228P); heavy chain SEQ ID NO: 71, light chain SEQ ID NO: 72 (antibody)
heavy: QVQLVQSGAEVKKPGASVKVSCKASGYTFTNYWMHWVRQAPGQGLEWMGYLNPSSGYTKYAQKFQGRVTMTRDTSTSTVYMELSSLRSEDTAVYYCTRSGGDNYGNPYYFDRWGQGTTVTVSSASTKGPSVFPLAPCSRSTSESTAALGCLVKDYFPEPVTVSWNSGALTSGVHTFPAVLQSSGLYSLSSVVTVPSSSLGTKTYTCNVDHKPSNTKVDKRV[human IgG4 Fc with S228P F234V L235E D265G (EU numbers) omitted here]GGGGSEIVLTQSPATLSLSPGERATLSCRSSQSLVHSNGNTYLNWYQQKPGQAPRLLIYKVSNRLSGIPARFSGSGSGTDFTLTISSLEPEDFAVYYCSQSTHVPYTFGCGTKLEIKGGGGSGGGGSGGGGSGGGGSEVQLVESGGGLIQPGGSLRLSCAASGFTFNAYAMSWVRQAPGKCLEWVSSISTGGNTYYADSVKGRFTISRDNSKNTLYLQMNSLRAEDTAVYYCTRGYQRFSGFAYWGQGTLVTVSS
light: DVQMTQSPSSLSASVGDRVTITCRASQSIVHSNGNTYLHWYQQKPGKAPKFLIYKVSNRFSGVPSRFSGSGSGTDFTLTISSLQPEDFATYYCAQSTLVPLTFGQGTKLEIKRTVAAPSVFIFPPSDEQLKSGTASVVCLLNNFYPREAKVQWKVDNALQSGNSQESVTEQDSKDSTYSLSSTLTLSKADYEKHKVYACEVTHQGLSSPVTKSFNRGEC
inhibition of chemotaxis in C5aR1-U937 stable cells [12]: more potently inhibited chemotaxis than avacopan and anti-C5aR1 control Ab | inhibition of neutropenia at low dose ([5]; hC5aR1 knock in mice, even at 0.1 mg/kg doses IV, vs vehicle): potently inhibited neutropenia
